This is an account of results in US9739779B2, “Methods of screening for Janus kinase 3 interacting compounds” (priority 2013, dated 2017).

This test addresses T1, P-Villin (Homo sapiens, UniProt P09327).
T1 construct: made in house; host or cells: E. coli TKX1 (pGEX2T vector)
T1 sequence (P09327 1-827): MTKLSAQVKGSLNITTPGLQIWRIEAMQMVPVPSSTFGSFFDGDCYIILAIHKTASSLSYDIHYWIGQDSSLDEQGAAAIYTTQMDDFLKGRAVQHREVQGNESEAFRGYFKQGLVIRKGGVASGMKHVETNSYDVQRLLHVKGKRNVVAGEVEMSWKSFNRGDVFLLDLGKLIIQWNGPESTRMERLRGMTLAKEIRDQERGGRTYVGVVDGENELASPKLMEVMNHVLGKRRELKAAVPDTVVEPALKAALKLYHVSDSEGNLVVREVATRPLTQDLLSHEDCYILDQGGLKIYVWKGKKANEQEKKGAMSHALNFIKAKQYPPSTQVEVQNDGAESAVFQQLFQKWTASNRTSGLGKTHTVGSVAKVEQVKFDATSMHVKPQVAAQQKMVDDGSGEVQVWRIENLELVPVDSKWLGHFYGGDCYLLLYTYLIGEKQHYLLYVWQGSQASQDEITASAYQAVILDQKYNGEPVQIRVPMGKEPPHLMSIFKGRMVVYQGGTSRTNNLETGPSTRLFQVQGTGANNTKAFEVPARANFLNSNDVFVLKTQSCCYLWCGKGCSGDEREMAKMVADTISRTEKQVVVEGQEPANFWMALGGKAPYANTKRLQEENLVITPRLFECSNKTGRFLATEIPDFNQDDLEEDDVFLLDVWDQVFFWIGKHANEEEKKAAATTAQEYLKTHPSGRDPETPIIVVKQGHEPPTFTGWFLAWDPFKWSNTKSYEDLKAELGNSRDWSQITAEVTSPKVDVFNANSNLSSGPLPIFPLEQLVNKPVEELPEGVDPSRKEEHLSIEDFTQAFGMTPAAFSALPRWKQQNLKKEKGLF
In words: Multiplate ELISA binding of GST-Jak3 and truncated Jak3 fusion proteins to P-Villin. The note with it: for level of binding to P-Villin: FIG. 8A, GST-alone control subtracted. As to the method: Absorbance values for wells containing P-Villin contacted with GST alone were used as control, and data presented on the ordinate axis represent absorbance values after subtraction of control values.
To determine the ability of Jak3 to interact with natural compounds including biomolecules, binding studies were performed in a multiplate using the cytoskeletal protein, Villin, known in the art to be a substrate for P-Jak3. Multiplates pre-coated with P-Villin were contacted with increasing concentrations of GST-P-Jak3 fusion protein (test samples) or GST alone (control sample). Binding levels were measured using GST antibody as the primary binding partner, horse radish peroxidase conjugated antibody as the secondary binding partner and 3,3′,5,5′-tetramethylbenzidine as the colorimetric substrate. Raw absorbance data for the control samples were subtracted from the absorbance for the test samples to obtain the corrected absorbance values.
To determine whether the kinase domains of Jak3 are critical for Villin binding, recombinant GST-truncated-Jak3 fusion proteins shown in FIGS. 2C-2E were expressed in BL21 (for non-phosphorylated proteins) or TKX1 (for phosphorylated proteins) cells, and purified. Multiplates pre-coated with P-Villin were contacted with these GST-tagged recombinant truncated-Jak3 or with GST-tagged recombinant WT-Jak3, and binding measured as described supra.
In general terms: ELISA stands for enzyme-linked immunosorbent assay.

B1: […]: GST-truncated Jak3 lacking JH1-JH4 (SEQ ID NO. 10); contains the FERM domain alone (protein)
chain: [no letters for about 200 residues]SDLVPRGSPNSMAPPSEETPLIPQRSCSLSSSEAGALHVLLPPRGPGPPQRLSFSFGDYLAEDLCVRAAKACGILPVYHSLFALATEDFSCWFPPSHIFCIEDVDTQVLVYRLRFYFPDWFGLETCHRFGLRKDLTSAILDLHVLEHLFAQHRSDLVSGRLPVGLSMKEQGEFLSLAVLDLAQMAREQAQRPGELLKTVSYKACLPPSLRDVIQGQNFVTRRRIRRTVVLALRRVVACQADRYALMAKYILDLERLHPAATTETFRVLPGAQEEPGLLRVAG
modifications: amino acid sequence of Glutathione S-transferase-truncated Janus Kinase 3 fusion protein
notes: contains the FERM domain alone
For orientation: Kd means the concentration at which binding is half-saturated. For the molecule B1, the “level of binding to P-Villin” value was “approximately the same level as P-WT-Jak3”. Where the note is “plates pre-coated with P-Villin, read-out: dissociation constant (Kd)”, the Kd was determined as 40 nM.

B2: […]: GST-Jak3 fusion protein lacking the JH1 domain (SEQ ID NO. 8) (protein)
chain: [no letters for about 200 residues]SDLVPRGSPNSMAPPSEETPLIPQRSCSLSSSEAGALHVLLPPRGPGPPQRLSFSFGDYLAEDLCVRAAKACGILPVYHSLFALATEDFSCWFPPSHIFCIEDVDTQVLVYRLRFYFPDWFGLETCHRFGLRKDLTSAILDLHVLEHLFAQHRSDLVSGRLPVGLSMKEQGEFLSLAVLDLAQMAREQAQRPGELLKTVSYKACLPPSLRDVIQGQNFVTRRRIRRTVVLALRRVVACQADRYALMAKYILDLERLHPAATTETFRVGLPGAQEEPGLLRVAGDNGISWSSGDQELFQTFCDFPEIVDVSIKQAPRVGPAGEHRLVTVTRMDGHILEAEFPGLPEALSFVALVDGYFRLICDSRHYFCKEVAPPRLLEEEAELCHGPITLDFAIHKLKAAGSLPGTYILRRSPQDYDSFLLTACVQTPLGPDYKGCLIRQDPSGAFSLVGLSQPHRSLRELLAACWNSGLRVDGAALNLTSCCAPRPKEKSNLIVVRRGCTPAPAPGCSPSCCALTQLSFHTIPTDSLEWHENLGHGSFTKIFRGRRREVVDGETHDSEVLLKVMDSRHRNCMESFLEAASLMSQVSYPHLVLLHGVCMAGDSIMVQEFVYLGAIDMYLRKRGHLVSASWKLQVTKQLAYALNYLEDKGLPHGNVSARKVLLAREGGDGNPPFIKLSDPGVSPTVLSLEMLTDRIPWVAPECLQEAQTLCLEADKWGFGATTWEVFSGGPAHITSLEPAKKLKFYEDQGQLPALKWTELAGLITQCMAYDPGRRPSFRAILRDLNGLITSDYELLSDPPGIPSPRDELCG
modifications: amino acid sequence of Glutathione S-Transferase-truncated Janus Kinase 3 fusion protein
On to B2, for which the “level of binding to P-Villin” value is listed as “relatively lower level of binding”.

B3: Jak-V484: GST-truncated Jak3 fusion protein lacking the JH1 and JH2 domains (SEQ ID NO. 9) (protein)
chain: [no letters for about 200 residues]SDLVPRGSPNSMAPPSEETPLIPQRSCSLSSSEAGALHVLLPPRGPGPPQRLSFSFGDYLAEDLCVRAAKACGILPVYHSLFALATEDFSCWFPPSHIFCIEDVDTQVLVYRLRFYFPDWFGLETCHRFGLRKDLTSAILDLHVLEHLFAQHRSDLVSGRLPVGLSMKEQGEFLSLAVLDLAQMAREQAQRPGELLKTVSYKACLPPSLRDVIQGQNFVTRRRIRRTVVLALRRVVACQADRYALMAKYILDLERLHPAATTETFRVGLPGAQEEPGLLRVAGDNGISWSSGDQELFQTFCDFPEIVDVSIKQAPRVGPAGEHRLVTVTRMDGHILEAEFPGLPEALSFVALVDGYFRLICDSRHYFCKEVAPPRLLEEEAELCHGPITLDFAIHKLKAAGSLPGTYILRRSPQDYDSFLLTACVQTPLGPDYKGCLIRQDPSGAFSLVGLSQPHRSLRELLAACWNSGLRVDGAALNLTSCCAPRPKEKSNLIVRRGCTPAPAPG
modifications: amino acid sequence of Glutathione S-transferase-truncated Janus Kinase 3 fusion protein
Consider B3, for which the “level of binding to P-Villin” value is “relatively lower level of binding”.

B4: P-Jak-V484: phosphorylated GST-truncated Jak3 fusion protein lacking the JH1 and JH2 domains (SEQ ID NO: 13) (protein)
chain: [no letters for about 200 residues]SDLVPRGSPNSMAPPSEETPLIPQRSCSLSSSEAGALHVLLPPRGPGPPQRLSFSFGDYLAEDLCVRAAKACGILPVYHSLFALATEDFSCWFPPSHIFCIEDVDTQVLVYRLRFYFPDWFGLETCHRFGLRKDLTSAILDLHVLEHLFAQHRSDLVSGRLPVGLSMKEQGEFLSLAVLDLAQMAREQAQRPGELLKTVSYKACLPPSLRDVIQGQNFVTRRRIRRTVVLALRRVVACQADRYALMAKYILDLERLHPAATTETFRVGLPGAQEEPGLLRVAGDNGISWSSGDQELFQTFCDFPEIVDVSIKQAPRVGPAGEHRLVTVTRMDGHILEAEFPGLPEALSFVALVDGYFRLICDSRHYFCKEVAPPRLLEEEAELCHGPITLDFAIHKLKAAGSLPGTYILRRSPQDYDSFLLTACVQTPLGPDYKGCLIRQDPSGAFSLVGLSQPHRSLRELLAACWNSGLRVDGAALNLTSCCAPRPKEKSNLIVRRGCTPAPAPG
modifications: phosphorylated; amino acid sequence of Glutathione S-transferase-Phosphorylated truncated Janus Kinase 3 fusion protein
As to B4, the “level of binding to P-Villin” value was “approximately the same level as P-WT-Jak3 and Jak3-G257”.
